Measurements taken from the supplement of paper PMC5499739.
In all, about 16,000 sequences were measured (“Z-score”: median about -0.37, highest 2% from about 3.2 on). Some of the results follow.

These sequences were tested on RBM10 RRM1-ZnF (GST-tagged construct) (assay: RNAcompete 7-mer binding Z-score; higher = stronger binding preference).
Procedure, shortened: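 A designed pool of 241 399 RNAs, each up to 41 nt and transcribed from microarray-derived DNA templates, was used at 1.5 nmol with 20 pmol of GST-tagged RBM10 constructs. The mixture, in 1 ml Hepes pH 7.8 buffer with KCl, NaCl, glycerol, DTT, BSA and glutathione Sepharose beads, was held 30 min at 4°C and then washed four times for 2 min at 4°C. Bound RNA was read out by microarray hybridisation, and enrichment of each heptamer motif was scored as a one-sided Z-score over the probes carrying it.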

Sequence | RNAcompete 7-mer binding Z-score
CGUUUGU | -0.461
GGUUGAU | 1.7
GCUGACU | -0.311
AGGUUGU | 0.803
UUUUGUG | -0.0869
AGCACCU | -0.613
UCUCAUA | -0.678
GGAACAA | 0.884
GACAGAC | -0.11
GGCGUGG | 2.9
CGGCGCG | 0.413
UUAGAAA | -0.0739
UUGCUGA | -0.324
GGUUUUA | 0.677
AUAUUGG | 0.897
CCUCGGC | -0.47
CUAUCGC | -0.668
CAUUGGA | 0.326
CAUUCCC | -0.763
CGUUGAA | -0.249
AAUGCAG | -0.0155
UGAGACA | 0.222
CUAUCGU | -0.727
AAAUGAG | 0.488

Sequence | RNAcompete 7-mer binding Z-score
AUGACCG | -0.425
GAUGACU | -0.184
UGUUUAC | -0.642
UGGUUAG | 2.24
UGACCCG | -0.142
GAGCCAC | -0.457
CCCCGUG | 0.482
CCCACAU | -0.626
AACCCUC | -0.828
CUCUCGG | -0.568
AUCGGGU | 1.7
GUCAUUA | -0.37
UGAAAGU | 0.296
AUAUCAU | -0.558
AGUGACA | 0.218
GACUGGU | 1.05
UGUUCAG | -0.435
GACUAAU | -0.396
AUAGUAC | -0.373
GACCCGA | -0.594
CGGUAUG | 0.985
UAGAGUU | -0.0739
UCACGGU | -0.175
UGCCGGA | -0.0479

Sequence | RNAcompete 7-mer binding Z-score
CCGAUGG | 0.267
GAUCCGG | -0.0122
GAUCUUA | -0.561
CGGAUUG | 0.897
GCCAGAG | 0.00729
UCCAGGC | -0.623
GGACCUA | -0.149
UGCUACA | -0.545
UCACUGG | -0.0317
ACAUGUG | 0.381
AUACUGG | 0.352
GUGUGUG | 1.13
AGGGAGG | 3.68
GCCUCCG | -0.493
GCGGCAU | 0.361
AGAGGCU | -0.243
UACAACA | -0.149
UAAGAUC | -0.496
CAGGACU | 0.183
UGCAGGA | 0.966
GUAGGUG | 3.06
GACACGG | 1.05
CGAAAAU | -0.477
AUCUCGA | -0.724

Sequence | RNAcompete 7-mer binding Z-score
GCGGAAC | 0.901
ACUGGGA | 2.35
AUUGGAA | 1.29
AAGCAGA | 0.475
CAGUCCU | -0.837
GUAAGUG | 1.25
AUGUUAC | -0.47
UCGUGCC | -0.655
CAUCUAC | -0.704
CUCGCUC | -0.743
UCGGGAG | 1.12
UCCCAAC | -0.6
GGCGUGA | 1.04
CUCAUUU | -0.997
CUUCUUC | -0.854
UUGGCCU | -0.509
UGGCUCA | 0.0333
UUUCUAA | -0.717
UAAAUUU | -0.691
CGUUGGG | 1.9
ACGUCUU | -0.85
CAUAGUA | -0.149
AGCUCCG | -0.766
CUGUCAA | -0.607

Sequence | RNAcompete 7-mer binding Z-score
AUCGGUU | -0.035
UUGCCUA | -0.597
CGGACUU | -0.285
UCAGCUG | -0.373
GGGCGGA | 2.86
AGAAGUC | -0.405
ACACAUU | -0.737
CACUAUA | -0.532
CCGACCC | -0.509
GUAUAGU | 0.472
CGUGAUG | 0.605
GCCGGGA | 0.638
UACCCAG | -0.659
CAAUUAU | -0.753
GGCGGGA | 3.05
AUGAAAG | 1.08
CCGCCCC | -0.477
AUUUGGA | 0.647
AUGAUCG | -0.022
CGCGGCC | -0.383
CCGCGGU | 0.443
GUUGCUA | -0.197
CACAUGU | -0.448
GGUCGGU | 1.24

Sequence | RNAcompete 7-mer binding Z-score
CUUCGGU | -0.422
AAACGCC | -0.785
GGGCCUU | -0.0999
UUCUGAU | -0.831
CGGUUUU | 0.0268
ACUGUUG | -0.256
UUAGUGA | 0.102
UACUGUC | -0.789
CCUACAC | -0.847
CGACCUC | -0.792
GCGAUGC | 0.102
AUUAGCA | -0.0869
CCUAGCC | -0.613
CAACAGG | 0.699
UCACGAU | -0.591
AUUGCGA | -0.181
CGCGUCU | -0.688
AAAGUGG | 2.15
CUAGCCC | -0.61
UCUUCGC | -0.899
GUUACGG | 0.859
CCUUAUA | -0.87
CAUGAUU | -0.73
GGGAGAC | 2.2

Sequence | RNAcompete 7-mer binding Z-score
AGAGCGC | -0.568
CUUUCCA | -0.889
AAGAGAU | 0.293
CACCAAG | -0.461
AAAUAUA | -0.145
GAAUGAC | 0.16
GCCCCAU | -0.707
CUGGUUC | -0.519
ACAAAUA | -0.376
GCGUUGA | -0.0999
UUGGAUC | -0.119
UGCGGAG | 1.57
UACCCAA | -0.724
GAUCGGA | 0.621
UCAUACG | -0.49
CUAACGC | -0.766
UGUCCAG | -0.646
CGUCACU | -0.522
AGACCAG | -0.513
AAGCACG | -0.0772
GCAGCCA | -0.438
AACUUGC | -0.802
UGACGCA | -0.113
CCGCGGA | 0.306

Sequence | RNAcompete 7-mer binding Z-score
UUGUAAU | -0.383
CCGAGAC | -0.756
GGCAUGU | 0.719
GUGCAUA | 0.196
GUGAUGU | 0.433
GUGCGGA | 2.13
AAGCUGU | -0.655
GUGAGUA | 1.02
UACGCGU | -0.318
UGUUACA | -0.405
UCGCACG | -0.149
AACGGUA | 1.12
GGGUGUU | 3.01
UUAAGAG | 0.306
GAACACA | -0.266
UAGCACG | -0.168
UAUGAGU | 0.202
AUAGUGC | 0.173
CAAUGAG | 0.183
UGCCCAA | -0.542
CGGUUAC | 0.319
UUGCUUC | -0.802
CUCUCAC | -0.688
UUAAUGA | -0.301

Sequence | RNAcompete 7-mer binding Z-score
AAGUCUU | -0.681
AAUGGAG | 3.43
CCAUGCG | -0.47
CAAGAAU | -0.269
UGAUUAC | -0.535
CGAAGAG | 0.329
ACGAGAC | -0.171
AUGCUUA | -0.665
GGAACUA | 0.368
UACGUAA | -0.269
GUUUCAC | -0.597
CUUCUUU | -0.886
AUACCGG | -0.376
CAGGAAU | 0.894
UGCGGUC | 0.0105
GCGCAGA | 0.54
AGAGGGA | 2.09
GAAUGGU | 3.01
CACUAUC | -0.649
CGAAUAG | 0.056
CUUACCC | -0.792
UCUCCGU | -0.815
GAAAUAU | -0.0414
AUCCGGC | -0.636

Sequence | RNAcompete 7-mer binding Z-score
AUGAAGC | 0.0853
UAGAAUU | -0.262
CAGCGAA | -0.11
UCAGUCG | -0.353
GUCCUCC | -0.438
GUGGAGC | 2.91
UACUAUC | -0.711
GUCAGUA | 0.196
GUUGAUG | 1.24
ACAUAGG | 0.875
GCCAAAC | -0.548
CUGUUAC | -0.73
CCAUGAC | -0.805
AGAUGUU | -0.0934
UGGAUCG | 0.576
AGGCAUC | -0.269
GACACCC | -0.542
CUCCCUG | -0.311
